Where “and” joins values, the source holds several entries; their conditions need not be identical. Equal entries are not always repeated. Hit rate of the full screen: of about 410,000 compounds, about 5,000 (1.2%) were called active. The inconclusive results got no clear call from the source; some entries with a clear call stand among them for comparison. The call rests on the fitted dose curve; in most records, active means well fitted inhibition curve with a large enough effect; inconclusive means small, poorly fitted or top-dose-only effect; inactive means no such curve, though single readings can be large or run the other way. Potencies beside an inconclusive call are fits to weak or partial responses and may not hold up.
Experiment: qHTS for Inhibitors of TGF-b; further: nearly all actives have a fitted effect of over 65% in size
Details: HepG2 CAGA-GFP TGF-b/SMAD3 reporter, GFP fluorescence, 18 h, TGF-beta stimulated, 500 pg/mL final; series mostly up to 46.1 µM; activity, negative = inhibition: at the top concentration
Procedure, shortened: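 HEPG2 CAGA-GFP cells (1000/well, DMEM with 1% FBS) were pre-incubated 2 h at 37 degrees C, given compound by pin tool, then stimulated with TGF-beta at 500 pg/mL final for 18 h before per-cell GFP fluorescence imaging.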
On the % scale 0 is the no-effect control and ±100 the full control effect; potency means the concentration at half of the fitted maximal effect; tags describe the fitted curve by direction and shape.

| SMILES | Potency | activity, negative = inhibition |
| --- | --- | --- |
| Cc1cc(Cl)c(S(=O)(=O)N2CCN(c3cccc(C)c3C)CC2)cc1OCC(N)=O | inconclusive: 12.6 µM [inhibitor, single point] |  |
| Cc1ccc(NC(=O)CCNC(=O)c2ccc(Br)cc2)cc1S(=O)(=O)N1CCCCCC1 | inconclusive: 35.5 µM [inhibitor, single point] |  |
| Cc1ccc(C)c(N2CCN(C(=O)CCc3nc(-c4cccc(Cl)c4)no3)CC2)c1 | inconclusive: 6.31 µM [inhibitor, partial curve, poor fit] |  |
| Cc1ccc(S(=O)(=O)N2CC=C(c3ccc(F)cc3)CC2)cc1 | active: 3.16 µM |  |
| CCOc1ccc(CCNC(=O)CCc2cn(Cc3ccc(C)cc3)c3ccccc23)cc1 | inconclusive: 7.08 µM [inhibitor, partial curve, poor fit] |  |
| CC(C)CCNC(=O)N1CCN(S(=O)(=O)c2ccc3c(ccn3C)c2)CC1 |  | inactive: 0.083% |
| COc1ccc(CCNC(=O)CCCN2C(=O)C(c3ccccc3)Oc3cccnc32)cc1OC (configuration not stated) |  | inactive: -5.73% |
| CCOC(=O)c1c(S(=O)(=O)N2CCCC(C(=O)Nc3cc(C)ccc3OC)C2)c(C)n(C)c1C (configuration not stated) | inconclusive: 35.5 µM [inhibitor, single point] |  |
| O=C(c1ccc2c(Cl)c3c(nc2c1)CCCC3)N1CCC(N2CCCCC2)CC1 | inconclusive: 35.5 µM [inhibitor, single point] |  |
| Cc1cccc(N2CCN(C(=O)c3ccc(-n4cncn4)c([N+](=O)[O-])c3)CC2)c1C | inconclusive: 8.91 µM [inhibitor, partial curve, poor fit] |  |
| COc1ccc(N2CCC(CNC(=O)Nc3ccc(Cl)cc3)C2)cc1 (configuration not stated) | inconclusive: 35.5 µM [inhibitor, single point] |  |
| CCOC(=O)c1ccccc1NCN1C(=O)CSC1=O | inconclusive: 35.5 µM [inhibitor, single point] |  |
| S=c1[nH]nc(COc2cccc3ccccc23)n1Cc1ccccc1 | inconclusive: 22.4 µM [inhibitor, single point] |  |
| Cc1cc(N)n2nc(C)c(-c3ccc(Cl)cc3)c2n1 |  | inactive: -12.1% |
| CC(=O)Nc1cc(-c2cccc(C(=O)N(C)C)c2)cn2c(-c3ccccc3)cnc12 |  | inactive: -1.36% |
| COc1ccc(/C=C/c2onc(C)c2S(=O)(=O)N2CCC(C(=O)N3CCC(C)CC3)CC2)cc1 | inconclusive: 7.08 µM [inhibitor, partial curve, poor fit] and inconclusive: 22.4 µM [inhibitor, single point] |  |
| O=C(c1ccc2c(c1)OCO2)N1CCC2(CC1)Oc1ccc(Cl)cc1C(=O)C21CC(c2ccccc2)=NO1 (configuration not stated) | inconclusive: 0.631 µM [inhibitor, full curve] |  |
| O=C(CNCCc1ccccc1)Nc1ccc(C(=O)N2CCCCC2)cc1 |  | inactive: -1.6% |
| N#Cc1ccc(C=NN2CCCCCC2)cc1 |  | inactive: -11.4% |
| Cc1c2cnccc2c(C)c2c1oc1ccccc12 | inconclusive: 22.4 µM [inhibitor, single point] |  |
| Cc1ccc(S(=O)(=O)c2nc(-c3ccccc3)oc2N2CCCCCC2)cc1 |  | inactive: -15.2% |
| CSc1cccc(NC(=O)CCCOc2ccc(Cl)cc2C)c1 | active: 12.6 µM |  |
| CN(Cc1ccccc1)C(=O)c1ccc(NC(=O)Cc2ccc(NC(=O)C3CCN(C(=O)C4CCC4)CC3)cc2)cc1 |  | inactive: 12.7% |

| SMILES | Potency | activity, negative = inhibition |
| --- | --- | --- |
| O=C(N/N=C/C=C\c1ccccc1[N+](=O)[O-])c1cccs1 |  | inactive: -7.75% |
| Cc1cc(Br)ccc1NC(=O)c1ccc(-n2cncn2)c([N+](=O)[O-])c1 | inconclusive: 3.16 µM [inhibitor, full curve, poor fit] |  |
| Cc1cc(-c2cc(C(=O)NCc3ccccc3)on2)nc(S(C)(=O)=O)n1 | inconclusive: 25.1 µM [inhibitor, single point] |  |
| Cc1cccn2c(=O)c(/C=C(\C#N)C(N)=O)c(N3CCN(c4cccc(Cl)c4)CC3)nc12 | inconclusive: 35.5 µM [inhibitor, single point] |  |
| COc1ccccc1N1CCN(C(=O)c2cccc(S(=O)(=O)N3c4ccccc4CC3C)c2)CC1 (configuration not stated) | inconclusive: 12.6 µM [inhibitor, partial curve, poor fit] |  |
| CC(=O)c1ccc(NC(=O)Cn2c(-n3nc(C)cc3C)nc(C)cc2=O)cc1 |  | inactive: -21.9% |
| CCOC(=O)COc1c(Br)cc(C2NC(=O)NC(C)=C2C(C)=O)cc1OC (configuration not stated) | inconclusive: 3.98 µM [inhibitor, single point] |  |
| Cc1ccc(NC(=O)c2ccc([N+](=O)[O-])o2)c(C)c1 | active: 12.6 µM |  |
| Cc1ccc2nc(C(C)(C)C)c(Cc3ccsc3)n2c1 | inconclusive: 22.4 µM [inhibitor, single point] |  |
| Cc1cccn2c(=O)c3cc(C(=O)NCCc4ccc(S(N)(=O)=O)cc4)n(C)c3nc12 |  | inactive: 0.0853% |
| CC(C)(C)c1ccc(OCC(=O)N(Cc2ccco2)Cc2ccccc2F)cc1 | inconclusive: 35.5 µM [inhibitor, single point] |  |
| O=S(=O)(Nc1cccc2ccccc12)c1cccc2ccccc12 | inconclusive: 22.4 µM [inhibitor, single point] |  |
| CCN(C(=O)c1cc(S(=O)(=O)N2CCOCC2)cn1C)c1ccc(OC)cc1 | inconclusive: 5.01 µM [inhibitor, full curve, poor fit] |  |
| COCCCN1C(=O)C(CC(=O)NC2CCCC2)CC(C(=O)N2CCOCC2)=C1C (configuration not stated) |  | inactive: -0.474% |
| Cc1ccc(NC(=O)C(Cc2ccccc2)NS(=O)(=O)c2ccc3c(c2)c(=O)n(C)c(=O)n3C)cc1 (configuration not stated) | inconclusive: 12.6 µM [inhibitor, single point] |  |
| CCN(CC)C(=O)[C@H]1CC(CC(=O)NCC23CC4CC(CC(C4)C2)C3)C(=O)N2CCc3c([nH]c4ccc(OC)cc34)[C@]12C (some centres not stated) | inconclusive: 14.1 µM [inhibitor, partial curve, poor fit] |  |
| CCOc1ccc(C(C)C)cc1S(=O)(=O)Nc1cccc(-c2ccc(N3CCOCC3)nn2)c1 |  | inactive: -5.27% |
| Cc1ccc(CN2C(=O)c3ccccc3S(=O)(=O)c3ccc(C(=O)OCC4CCCO4)cc32)cc1 (configuration not stated) |  | inactive: 7.43% |
| COCCN=c1scc(-c2cccs2)n1/N=C/c1ccc(O)c(O)c1O | inconclusive: 28.2 µM [inhibitor, partial curve, poor fit] |  |
| CCCC(=O)Oc1c(Sc2ccc(Cl)cc2)c(C)nn1-c1ccccc1 | inconclusive: 12.6 µM [inhibitor, partial curve, poor fit] |  |
| CCOc1ccccc1Nc1cc(C)nc2ccccc12 |  | inactive: -17.8% |
| Oc1ccc(N=Cc2c(O)ccc3ccccc23)cc1 | inconclusive: 11.2 µM [inhibitor, partial curve, poor fit] |  |
| Cc1ccc(CSc2nc3c(c(N(C)C)n2)CCCC3)cc1 | inconclusive: 25.1 µM [inhibitor, single point] |  |

| SMILES | Potency | activity, negative = inhibition |
| --- | --- | --- |
| Cn1ncc(Cl)c(Oc2ccc(Cl)cc2)c1=O | inconclusive: 14.1 µM [inhibitor, single point] |  |
| CCOc1ccc2oc(C(=O)Nc3ccc4c(c3)OCO4)c(C)c2c1 |  | inactive: -2.75% |
| COC(=O)c1ccc(N2CCN(S(=O)(=O)c3ccc(C)cc3)CC2)c([N+](=O)[O-])c1 |  | inactive: -12.4% |
| O=C(CSc1nc2ccccc2c(=O)n1Cc1ccco1)N1CCCCCC1 |  | inactive: -16.1% |
| C[C@@H](OC(=O)c1[nH]cnc1C(=O)NCc1ccc(CNC(=O)OC(C)(C)C)cc1)c1ccccc1 | inconclusive: 17.8 µM [inhibitor, single point] |  |
| O=C(O)CCNS(=O)(=O)c1cccc2nsnc12 |  | inactive: 1.41% |
| Cc1oc(-c2ccc(C(=O)Nc3ccc(F)cc3F)cc2)nc1COc1ccccc1 | inconclusive: 6.31 µM [inhibitor, single point] |  |
| CC(C)(C)c1ccc(OCCSc2nc(-c3cccs3)nc3cc(=O)[nH]n23)cc1 |  | inactive: -6.77% |
| O=C(COc1ccc(S(=O)(=O)N2CCCC2)cc1)NCCC1=CCCCC1 | inconclusive: 35.5 µM [inhibitor, single point] |  |
| CCC(=O)Nc1ccccc1-c1nc2ccccc2n(C(CC)C(=O)Nc2cccc(C(C)=O)c2)c1=O (configuration not stated) | inconclusive: 10 µM [inhibitor, partial curve, poor fit] |  |
| CC(C)(C)C1CCc2nc(NC(=O)COc3ccc(F)cc3)sc2C1 (configuration not stated) |  | inactive: -14.6% |
| CN(Cc1ccccc1)C(=O)c1ccc(NC(=O)Cc2ccc(NC(=O)C3CCN(C(=O)c4ccccc4)CC3)cc2)cc1 |  | inactive: -2.46% |
| Cc1c(C)c(C)c(S(=O)(=O)n2[nH]c(=O)c(CCO)c2C)c(C)c1C |  | inactive: 0.351% |
| CC(C)(OC(=O)c1ccc(F)cc1)c1cc2ccccc2c(=O)o1 | inconclusive: 1.12 µM [inhibitor, partial curve] |  |
| CCC(C)NC(=O)C1CCN(C(=O)c2cc3sccc3n2Cc2ccc(Cl)cc2)CC1 (configuration not stated) | inconclusive: 2.82 µM [inhibitor, single point] |  |
| CCc1ccccc1N1CC(c2nc3ccccc3n2CC(C)C)CC1=O (configuration not stated) | inconclusive: 35.5 µM [inhibitor, single point] |  |
| Cc1ccc(-c2csc(C(O)(c3ccccc3)C(F)(F)F)n2)cc1C (configuration not stated) | inconclusive: 28.2 µM [inhibitor, single point] |  |
| NC(=S)N=Nc1c(O)cc(O)c2[nH]c(=O)ccc12 |  | inactive: -12.1% |
| Cc1cc(=O)c2ccccc2n1CC(=O)NCc1ccccc1 | inconclusive: 20 µM [inhibitor, single point] |  |
| Cc1csc(N(C)C(=O)CSc2nnc(COc3cccc4ccccc34)o2)n1 | inconclusive: 7.94 µM [inhibitor, partial curve, poor fit] |  |
| Cc1ccc(-c2onc(C)c2C)cc1S(=O)(=O)N1CC(C)Oc2ccccc21 (configuration not stated) | inconclusive: 5.62 µM [inhibitor, single point] |  |

From PubChem BioAssay AID588855 (National Center for Advancing Translational Sciences (NCATS), 2011)
